In publication PMC12820563, “FoxP3 forms a head-to-head dimer in vivo and stabilizes its multimerization on adjacent microsatellites”:
Some of the results follow.

molecular target: T1, MBP-FoxP1dN (Mus musculus, UniProt P58462 326-579); assay: PD-seq (MBP pull-down with sequencing); 20 mM Tris-HCl pH 7.5, 100 mM NaCl, 1.5 mM MgCl2, 0.4 uM protein, 0.1 uM dsDNA library, 30 min, room temperature, amylose pull-down; high values mean tight binding; details: protein: recombinant; tags: His6-MBP; chain copies: 2; dsDNA, one strand shown
T1 sequence: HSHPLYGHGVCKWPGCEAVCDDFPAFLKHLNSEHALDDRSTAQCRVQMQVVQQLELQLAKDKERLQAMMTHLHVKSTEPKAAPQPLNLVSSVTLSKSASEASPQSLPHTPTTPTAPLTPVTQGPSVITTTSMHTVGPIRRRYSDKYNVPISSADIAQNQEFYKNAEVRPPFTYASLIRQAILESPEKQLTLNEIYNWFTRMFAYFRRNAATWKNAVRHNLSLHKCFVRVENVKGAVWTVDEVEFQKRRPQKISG
In short: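 His6-MBP-tagged mouse FoxP3 or FoxP1 fragment lacking the N-terminus, expressed in E. coli, was mixed at 0.4 µM with 0.1 µM Klenow-filled double-stranded degenerate DNA library. Incubation was 30 min at room temperature in Tris pH 7.5 buffer with NaCl and MgCl2. Complexes were caught on amylose resin and washed three times; DNA was released with proteinase K, PCR-barcoded and Illumina-sequenced. Binding is reads-per-million enrichment, pull-down over input, with replicates pooled.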

Q: “GATGATTGTTCTCCCAGCTGATGAATTTGGGCCATCGAGTAAACAAATTTTCCTAATCTTTCTGTTCAAGCGCCATCTAC” was tested. Which binding signal did it give?
A: The binding signal was 0.878 RPM ratio (pull-down/input).

Q: For “GATGATTGTTCTCCCAGCTGATGAATTTTGACACTCGAGTAAACAAATTTTCCTAATCTTTCTGTTCAAGCGCCATCTAC”, which binding signal is on record?
A: Its binding signal is 0.961 RPM ratio (pull-down/input).

Q: “GATGATTGTTCTCCCAGCTGATGAATTTGCACGGTCGAGTAAACAAATTTTCCTAATCTTTCTGTTCAAGCGCCATCTAC” was tested. Which binding signal did it give?
A: Its binding signal is 0.878 RPM ratio (pull-down/input).

Q: For “GATGATTGTTCTCCCAGCTGATGAATTTGTGCCATCGAGTAAACAAATTTTCCTAATCTTTCTGTTCAAGCGCCATCTAC”, which binding signal is on record?
A: The binding signal was 1.22 RPM ratio (pull-down/input).

Q: “GATGATTGTTCTCCCAGCTGATGAATTACAGCCTTCGAGTAAACAAATTTTCCTAATCTTTCTGTTCAAGCGCCATCTAC” was tested. Which binding signal did it give?
A: The binding signal was 0.963 RPM ratio (pull-down/input).

Q: Which binding signal does the source give for “GATGATTGTTCTCCCAGCTGATGAATTCGTAATGTCGAGTAAACAAATTTTCCTAATCTTTCTGTTCAAGCGCCATCTAC” here?
A: The binding signal was 1.03 RPM ratio (pull-down/input).

Q: For “GATGATTGTTCTCCCAGCTGATGAATTGCCCTCTTCGAGTAAACAAATTTTCCTAATCTTTCTGTTCAAGCGCCATCTAC”, which binding signal is on record?
A: The binding signal was 0.958 RPM ratio (pull-down/input).

Q: With “GATGATTGTTCTCCCAGCTGATGAATTCAACTGATCGAGTAAACAAATTTTCCTAATCTTTCTGTTCAAGCGCCATCTAC” as the sequence, how does the binding signal read?
A: The binding signal was 0.916 RPM ratio (pull-down/input).

Q: “GATGATTGTTCTCCCAGCTGATGAATTGGGCAGTTCGAGTAAACAAATTTTCCTAATCTTTCTGTTCAAGCGCCATCTAC” was tested. Which binding signal did it give?
A: The binding signal was 0.883 RPM ratio (pull-down/input).

Q: For “GATGATTGTTCTCCCAGCTGATGAATTGAGGATATCGAGTAAACAAATTTTCCTAATCTTTCTGTTCAAGCGCCATCTAC”, which binding signal is on record?
A: Its binding signal is 0.85 RPM ratio (pull-down/input).

Q: With “GATGATTGTTCTCCCAGCTGATGAATTTACCCAGTCGAGTAAACAAATTTTCCTAATCTTTCTGTTCAAGCGCCATCTAC” as the sequence, how does the binding signal read?
A: Its binding signal is 1.01 RPM ratio (pull-down/input).

Q: How did the binding signal turn out when “GATGATTGTTCTCCCAGCTGATGAATTTTACAGATCGAGTAAACAAATTTTCCTAATCTTTCTGTTCAAGCGCCATCTAC” was run?
A: Its binding signal is 0.907 RPM ratio (pull-down/input).

Q: “GATGATTGTTCTCCCAGCTGATGAATTTCAGTTATCGAGTAAACAAATTTTCCTAATCTTTCTGTTCAAGCGCCATCTAC” was tested. Which binding signal did it give?
A: The binding signal was 1.02 RPM ratio (pull-down/input).

Q: With “GATGATTGTTCTCCCAGCTGATGAATTTGGTAAATCGAGTAAACAAATTTTCCTAATCTTTCTGTTCAAGCGCCATCTAC” as the sequence, how does the binding signal read?
A: Its binding signal is 1.3 RPM ratio (pull-down/input).

Q: With “GATGATTGTTCTCCCAGCTGATGAATTAGCGGTTTCGAGTAAACAAATTTTCCTAATCTTTCTGTTCAAGCGCCATCTAC” as the sequence, how does the binding signal read?
A: The binding signal was 0.916 RPM ratio (pull-down/input).

Q: “GATGATTGTTCTCCCAGCTGATGAATTGGACTCCTCGAGTAAACAAATTTTCCTAATCTTTCTGTTCAAGCGCCATCTAC” was tested. Which binding signal did it give?
A: Its binding signal is 0.729 RPM ratio (pull-down/input).

Q: How did the binding signal turn out when “GATGATTGTTCTCCCAGCTGATGAATTGGGTACTTCGAGTAAACAAATTTTCCTAATCTTTCTGTTCAAGCGCCATCTAC” was run?
A: The binding signal was 0.888 RPM ratio (pull-down/input).

Q: “GATGATTGTTCTCCCAGCTGATGAATTATATTTGTCGAGTAAACAAATTTTCCTAATCTTTCTGTTCAAGCGCCATCTAC” was tested. Which binding signal did it give?
A: Its binding signal is 2.29 RPM ratio (pull-down/input).

Q: For “GATGATTGTTCTCCCAGCTGATGAATTGGTGTCGTCGAGTAAACAAATTTTCCTAATCTTTCTGTTCAAGCGCCATCTAC”, which binding signal is on record?
A: The binding signal was 1.04 RPM ratio (pull-down/input).

Q: Which binding signal does the source give for “GATGATTGTTCTCCCAGCTGATGAATTTCTCATATCGAGTAAACAAATTTTCCTAATCTTTCTGTTCAAGCGCCATCTAC” here?
A: Its binding signal is 1.01 RPM ratio (pull-down/input).

Q: Which binding signal does the source give for “GATGATTGTTCTCCCAGCTGATGAATTGTTCAATTCGAGTAAACAAATTTTCCTAATCTTTCTGTTCAAGCGCCATCTAC” here?
A: The binding signal was 1.18 RPM ratio (pull-down/input).

Q: Which binding signal does the source give for “GATGATTGTTCTCCCAGCTGATGAATTTGAAAGATCGAGTAAACAAATTTTCCTAATCTTTCTGTTCAAGCGCCATCTAC” here?
A: Its binding signal is 0.87 RPM ratio (pull-down/input).

Q: For “GATGATTGTTCTCCCAGCTGATGAATTGACTATATCGAGTAAACAAATTTTCCTAATCTTTCTGTTCAAGCGCCATCTAC”, which binding signal is on record?
A: Its binding signal is 1.17 RPM ratio (pull-down/input).

Q: “GATGATTGTTCTCCCAGCTGATGAATTGCCGGACTCGAGTAAACAAATTTTCCTAATCTTTCTGTTCAAGCGCCATCTAC” was tested. Which binding signal did it give?
A: Its binding signal is 0.858 RPM ratio (pull-down/input).

Q: How did the binding signal turn out when “GATGATTGTTCTCCCAGCTGATGAATTACGCAAGTCGAGTAAACAAATTTTCCTAATCTTTCTGTTCAAGCGCCATCTAC” was run?
A: The binding signal was 1.03 RPM ratio (pull-down/input).

Q: For “GATGATTGTTCTCCCAGCTGATGAATTGGTTGCGTCGAGTAAACAAATTTTCCTAATCTTTCTGTTCAAGCGCCATCTAC”, which binding signal is on record?
A: Its binding signal is 1.2 RPM ratio (pull-down/input).

Q: How did the binding signal turn out when “GATGATTGTTCTCCCAGCTGATGAATTATACGCCTCGAGTAAACAAATTTTCCTAATCTTTCTGTTCAAGCGCCATCTAC” was run?
A: Its binding signal is 0.912 RPM ratio (pull-down/input).

Q: For “GATGATTGTTCTCCCAGCTGATGAATTATCCGGGTCGAGTAAACAAATTTTCCTAATCTTTCTGTTCAAGCGCCATCTAC”, which binding signal is on record?
A: The binding signal was 0.783 RPM ratio (pull-down/input).

Q: For “GATGATTGTTCTCCCAGCTGATGAATTAGGGAAGTCGAGTAAACAAATTTTCCTAATCTTTCTGTTCAAGCGCCATCTAC”, which binding signal is on record?
A: The binding signal was 0.821 RPM ratio (pull-down/input).

Q: With “GATGATTGTTCTCCCAGCTGATGAATTGTCCAAATCGAGTAAACAAATTTTCCTAATCTTTCTGTTCAAGCGCCATCTAC” as the sequence, how does the binding signal read?
A: Its binding signal is 1.14 RPM ratio (pull-down/input).

Q: Which binding signal does the source give for “GATGATTGTTCTCCCAGCTGATGAATTGCCCTTGTCGAGTAAACAAATTTTCCTAATCTTTCTGTTCAAGCGCCATCTAC” here?
A: The binding signal was 0.89 RPM ratio (pull-down/input).

Q: “GATGATTGTTCTCCCAGCTGATGAATTGAATGCATCGAGTAAACAAATTTTCCTAATCTTTCTGTTCAAGCGCCATCTAC” was tested. Which binding signal did it give?
A: The binding signal was 1.44 RPM ratio (pull-down/input).
